{"source": "PubChem BioAssay AID504832", "about": "(National Center for Advancing Translational Sciences (NCATS), 2011)", "note": "Out of some 310,000 compounds screened, about 18,000 (5.8%) were called active. This list was built around the results that the source calls inconclusive (neither active nor inactive); the mix of calls is not that of the screen. Calls come from the whole dose curve; as a rule, active = well fitted inhibition curve with a large enough effect; inconclusive = small, poorly fitted or top-dose-only effect, or another doubt; inactive = no such curve, though single readings can be large or run the other way. No potency is given beside an inconclusive call; the fits are too rough. Potency is the fitted concentration of half-maximal effect; tags give direction and shape of the fitted curve.", "data": [{"assay": "Primary qHTS for delayed death inhibitors of the malarial parasite plastid, 48 hour incubation", "conditions": "P. falciparum luciferase growth in erythrocytes; series mostly up to 28.7 µM", "how_it_was_run": "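Growth was read as firefly luciferase luminescence after a 48 h, 37 C, 5% CO2 exposure of compounds to reporter-bearing P. falciparum cultures (0.1% parasitemia, 2% hematocrit final) in Albumax-supplemented RPMI 1640.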", "values": [{"smiles": "COc1ccccc1CNC(=O)C1CCC(CNc2c(N3CCCCC3)c(=O)c2=O)CC1", "note": "(stereo not drawn)", "Potency": "inconclusive [inhibitor, partial curve]"}, {"smiles": "O=C(NCc1ccccc1)C1CCCN(c2ncnc3c2nc2n3CCCCC2)C1", "note": "(stereo not drawn)", "Potency": "inconclusive [inhibitor, single point]"}, {"smiles": "O=C(c1ccc([N+](=O)[O-])cc1)N1C=CC(C(F)(F)F)=NCC1", "Potency": "inactive"}, {"smiles": "O=C(CN1CCCC1)N/N=C/c1c(O)ccc2ccccc12", "Potency": "inactive"}, {"smiles": "Cc1oc(=O)c(NC(=O)c2cccc(Cl)c2)cc1C(=O)c1ccccc1", "Potency": "inconclusive [inhibitor, single point]"}, {"smiles": "CC1CCN(S(=O)(=O)c2cccc(C(=O)Nc3ccccc3)c2)CC1", "Potency": "inconclusive [inhibitor, partial curve, poor fit]"}, {"smiles": "CCn1cc(CN2CCC(n3nccc3NC(=O)CCCc3ccccc3)CC2)cn1", "Potency": "inconclusive [inhibitor, single point]"}, {"smiles": "COc1ccc(C(=O)N2CCCC(CCC(=O)N3CCN(c4ccccn4)CC3)C2)cc1", "note": "(stereo not drawn)", "Potency": "inconclusive [inhibitor, full curve]"}, {"smiles": "COc1cc2c(cc1OC)C(c1ccc(Br)cc1)NC(=O)C2", "note": "(stereo not drawn)", "Potency": "inconclusive [inhibitor, partial curve, poor fit]"}, {"smiles": "CCCCC1CCC(C(=O)N(CC(C)C)c2c(N)n(Cc3ccccc3)c(=O)[nH]c2=O)CC1", "note": "(stereo not drawn)", "Potency": "inconclusive [inhibitor, single point]"}, {"smiles": "COc1cccc(CN2CC(C(=O)N3CCN(c4ccc(Cl)cc4)CC3)CCC2=O)c1", "note": "(stereo not drawn)", "Potency": "inconclusive [inhibitor, partial curve]"}, {"smiles": "CC1Cc2nc(SCC(=O)Nc3nccs3)n(Cc3ccccc3)c(=O)c2S1", "note": "(stereo not drawn)", "Potency": "active: 3.29 µM"}, {"smiles": "COc1cc2c(-c3ccccc3O)nc3c(c(C)nn3-c3ccccc3)c2cc1OC", "Potency": "inconclusive [inhibitor, partial curve, poor fit]"}, {"smiles": "Cc1cc2nc(NC3=NCN(Cc4ccc5c(c4)OCO5)CN3)nc(C)c2cc1C", "Potency": "inconclusive [inhibitor, partial curve]"}, {"smiles": "CN(C)c1ccc(P(=O)(OC2CCCCC2)C(Nc2ccccc2)c2cccnc2)cc1", "note": "(stereo not drawn)", "Potency": "active: 9.28 µM"}, {"smiles": "Cc1sc2ncnc(N3CCC(C(=O)Nc4ccc(C#N)cc4)CC3)c2c1C", "Potency": "inconclusive [inhibitor, partial curve, poor fit]"}, {"smiles": "CCN(CC)C(=O)CSc1nc2cc3c(cc2c(=O)n1CCCCCC(=O)NCc1ccc(OC)cc1)OCO3", "Potency": "inconclusive [inhibitor, partial curve, poor fit]"}, {"smiles": "Cc1cc(NC(=O)C2CC2)ncc1NC(=O)C12CC3CC(CC(C3)C1)C2", "Potency": "inconclusive [inhibitor, partial curve, poor fit]"}, {"smiles": "O=C(Cn1cnc2ccccc21)Nc1cccc(S(=O)(=O)N2CCCC2)c1", "Potency": "inconclusive [inhibitor, partial curve, poor fit]"}, {"smiles": "CCOc1ccc(CNc2ccc(N3CCN(Cc4ccccc4)CC3)cc2)cc1", "Potency": "inactive"}, {"smiles": "O=C(Cc1ccccc1)NC1(Cc2ccc(O)cc2)CCCCC1", "Potency": "inactive"}, {"smiles": "Cc1csc(SC(C)c2nc3scc(-c4ccccc4)c3c(=O)[nH]2)n1", "note": "(stereo not drawn)", "Potency": "inactive"}, {"smiles": "O=C(CN1C(=O)S/C(=C\\c2ccccc2F)C1=O)NC1C=CS(=O)(=O)C1", "note": "(stereo not drawn)", "Potency": "inconclusive [inhibitor, partial curve, poor fit]"}, {"smiles": "CC(=O)Oc1cc(C(F)(F)F)ccc1C(=O)O", "Potency": "inactive"}, {"smiles": "Cc1nc2sc(C(c3cccs3)N3CC(C)CC(C)C3)c(O)n2n1", "note": "(stereo not drawn)", "Potency": "active: 6.57 µM"}, {"smiles": "N#CCCn1cc(/C=C2\\NC(=S)N(c3ccccc3)C2=O)c(-c2ccc(F)cc2)n1", "Potency": "inconclusive [inhibitor, single point]"}, {"smiles": "COc1ccc(-c2c(C#N)c(N)nc3c2CCc2ccccc2-3)cc1OC", "Potency": "active: 2.33 µM"}, {"smiles": "CN(C)CCCN(C(=O)c1ccco1)c1nc2cc3c(cc2s1)OCO3", "Potency": "inactive"}, {"smiles": "Cc1ccc2nc(-c3ccccc3N)[nH]c2c1", "Potency": "inactive"}, {"smiles": "CCC(C)NC(=O)CN1C(=O)c2cccc3cccc1c23", "note": "(stereo not drawn)", "Potency": "inactive"}, {"smiles": "CCOc1ccc(N(C(=O)c2cnsn2)C(C(=O)NC2CCCCC2)c2ccncc2)cc1", "note": "(stereo not drawn)", "Potency": "inconclusive [inhibitor, partial curve, poor fit]"}, {"smiles": "CCOc1cc(C(=S)N2CCCCC2)ccc1OS(=O)(=O)c1ccc(Cl)cc1", "Potency": "inconclusive [inhibitor, single point]"}, {"smiles": "O=c1[nH][nH]c(=S)n1C1CCCCC1", "Potency": "inconclusive [inhibitor, partial curve, poor fit]"}, {"smiles": "CCCC[n+]1ccn(-c2nc3ccccc3nc2[N-]S(=O)(=O)c2cccs2)c1", "Potency": "inconclusive [inhibitor, partial curve, poor fit]"}, {"smiles": "Cc1ccccc1-n1c(SCC(N)=O)nc2sc(-c3ccccc3)cc2c1=O", "Potency": "inactive"}, {"smiles": "CC1=C(C(=O)Nc2cccc(F)c2)C(c2ccsc2)C2=C(CC(C)(C)CC2=O)N1", "note": "(stereo not drawn)", "Potency": "inconclusive [inhibitor, single point]"}, {"smiles": "COc1ccc(NC(=O)CSc2nc3cccnc3n2C)cc1", "Potency": "inconclusive [inhibitor, single point]"}, {"smiles": "CC1(C(=O)NCc2ccc(Cl)c(Cl)c2)Oc2ccccc2NC1=O", "note": "(stereo not drawn)", "Potency": "inconclusive [inhibitor, single point]"}, {"smiles": "CC(Oc1cccc(Cl)c1)C(=O)Nc1ccccc1N1CCCC1", "note": "(stereo not drawn)", "Potency": "inconclusive [inhibitor, single point]"}, {"smiles": "CCN(CC)C(=O)CC(c1cc(OC)c(OC)c(OC)c1)c1c(OC)cc(OC)c2ccc(=O)oc12", "note": "(stereo not drawn)", "Potency": "active: 11.7 µM"}, {"smiles": "ClCc1nnc(-c2cc3c(s2)CCCC3)o1", "Potency": "inconclusive [inhibitor, single point]"}, {"smiles": "CCc1cc2c3c(c(=O)oc2cc1O)CCCC3", "Potency": "inconclusive [inhibitor, partial curve]"}, {"smiles": "COc1ccc(-c2ccc(=O)n(Cc3cc(=O)n4ccccc4n3)n2)cc1", "Potency": "inconclusive [inhibitor, single point]"}, {"smiles": "O=C(NCc1ccccc1)C(=O)NCC(c1ccco1)N1CCN(c2ccccc2F)CC1", "note": "(stereo not drawn)", "Potency": "inconclusive [inhibitor, full curve, poor fit]"}, {"smiles": "CCOC(=O)c1ccc(NC(=O)c2ccc(CN3CCc4ccccc4C3)cc2)cc1", "Potency": "inconclusive [inhibitor, partial curve]"}, {"smiles": "COCCNCC(O)CON=C1c2ccccc2-c2ccccc21", "note": "(stereo not drawn)", "Potency": "inconclusive [inhibitor, partial curve, poor fit]"}, {"smiles": "Clc1ccc(OCCOCCN2CCCCC2)c(Br)c1", "Potency": "inconclusive [inhibitor, single point]"}, {"smiles": "COc1ccccc1NS(=O)(=O)c1ccc(NC(=O)CCNC(=O)c2ccco2)cc1", "Potency": "inconclusive [inhibitor, partial curve]"}, {"smiles": "CCOc1ccc2ccccc2c1/C=N/NC(=O)c1ccc(C)nc1", "Potency": "inactive"}, {"smiles": "CCc1cccc(C)c1NC(=O)CO/N=C(\\N)CC(=O)NC1CCCCC1", "Potency": "inconclusive [inhibitor, partial curve, poor fit]"}, {"smiles": "N/C(=N\\OC(=O)CCCc1ccccc1)c1cccnc1", "Potency": "inactive"}, {"smiles": "Cc1ccc(CNc2nc3ccccc3n2C)o1", "Potency": "inactive"}, {"smiles": "CCN(CC(=O)NCc1ccc(Cl)cc1)C(=O)c1ccc2cc(OC)ccc2c1", "Potency": "inactive"}, {"smiles": "O=C(NCCCl)Nc1cccnc1Cl", "Potency": "inactive"}, {"smiles": "O=C(CSc1ccc(Cl)cc1)Nc1ccc(-c2nc3ccccc3[nH]2)cc1", "Potency": "active: 4.15 µM"}, {"smiles": "CC(C)c1ccc(/C=C2\\SC(=S)N(CC(=O)NCCCN3CCOCC3)C2=O)cc1", "Potency": "inactive"}, {"smiles": "COc1ccccc1-c1sc2ccccc2c1-c1ccccc1OC", "Potency": "active: 13.1 µM"}, {"smiles": "CCOC(=O)c1c(C)nn(-c2ncccc2NC(=O)NC(C)C)c1C", "Potency": "inconclusive [inhibitor, single point]"}, {"smiles": "Cc1ccc(C2=CC(C)(c3ccc(C)cc3)Nc3nc(C(F)(F)F)nn32)cc1", "note": "(stereo not drawn)", "Potency": "inconclusive [inhibitor, single point]"}, {"smiles": "CN(C)S(=O)(=O)c1ccc(N2CCCC2)c(C(=O)N2CCN(S(=O)(=O)c3ccc(F)cc3)CC2)c1", "Potency": "inconclusive [inhibitor, partial curve, poor fit]"}, {"smiles": "CCCN(C(=O)/C=C/c1nc2ccccc2s1)C1CCS(=O)(=O)C1", "note": "(stereo not drawn)", "Potency": "inconclusive [inhibitor, partial curve, poor fit]"}, {"smiles": "Cc1cccc(NC(=O)NCCCCc2ccccc2)c1", "Potency": "inconclusive [inhibitor, single point]"}, {"smiles": "CCC(C)Nc1nc(-c2c[nH]c3ccccc23)cs1", "note": "(stereo not drawn)", "Potency": "active: 8.28 µM"}, {"smiles": "C=CCOC(=O)C1=C(C)N=C2SCCC(=O)N2C1/C=C/c1ccccc1", "note": "(stereo not drawn)", "Potency": "inconclusive [inhibitor, single point]"}, {"smiles": "O=C(COC(=O)c1cc([N+](=O)[O-])ccc1NCCO)Nc1cccc(S(=O)(=O)N2CCCC2)c1", "Potency": "inconclusive [inhibitor, partial curve]"}, {"smiles": "O=C(Nc1cccnc1)Nc1ccc(Cl)cc1Cl", "Potency": "inconclusive [inhibitor, partial curve, poor fit]"}, {"smiles": "CNC(=S)N(Cc1cc2cc(C)ccc2n2nnnc12)CC(C)(C)CN(C)C", "Potency": "inconclusive [inhibitor, partial curve]"}, {"smiles": "COc1cccc(NC(=O)Cc2csc(NC(=O)Nc3ccccc3OC)n2)c1", "Potency": "inconclusive [inhibitor, single point]"}]}]}
